Measured values as given in PubChem BioAssay AID1347165 (National Center for Advancing Translational Sciences (NCATS), 2019).
About 5,700 (2.6%) of roughly 220,000 compounds were called active. The inconclusive results got no clear call from the source; some entries with a clear call stand among them for comparison. Calls follow the shape of the dose curve; as a rule, active = well fitted inhibition curve with a large enough effect; inconclusive = small, poorly fitted or top-dose-only effect; inactive = no such curve, though single readings can be large or run the other way. Where the call is inconclusive, the potency comes from a doubtful curve fit.

Biological target: Lysine-specific demethylase 5B (Homo sapiens) (UniProt Q9UGL1)
UniProt Q9UGL1, sequence (Q9UGL1 whole entry, looked up): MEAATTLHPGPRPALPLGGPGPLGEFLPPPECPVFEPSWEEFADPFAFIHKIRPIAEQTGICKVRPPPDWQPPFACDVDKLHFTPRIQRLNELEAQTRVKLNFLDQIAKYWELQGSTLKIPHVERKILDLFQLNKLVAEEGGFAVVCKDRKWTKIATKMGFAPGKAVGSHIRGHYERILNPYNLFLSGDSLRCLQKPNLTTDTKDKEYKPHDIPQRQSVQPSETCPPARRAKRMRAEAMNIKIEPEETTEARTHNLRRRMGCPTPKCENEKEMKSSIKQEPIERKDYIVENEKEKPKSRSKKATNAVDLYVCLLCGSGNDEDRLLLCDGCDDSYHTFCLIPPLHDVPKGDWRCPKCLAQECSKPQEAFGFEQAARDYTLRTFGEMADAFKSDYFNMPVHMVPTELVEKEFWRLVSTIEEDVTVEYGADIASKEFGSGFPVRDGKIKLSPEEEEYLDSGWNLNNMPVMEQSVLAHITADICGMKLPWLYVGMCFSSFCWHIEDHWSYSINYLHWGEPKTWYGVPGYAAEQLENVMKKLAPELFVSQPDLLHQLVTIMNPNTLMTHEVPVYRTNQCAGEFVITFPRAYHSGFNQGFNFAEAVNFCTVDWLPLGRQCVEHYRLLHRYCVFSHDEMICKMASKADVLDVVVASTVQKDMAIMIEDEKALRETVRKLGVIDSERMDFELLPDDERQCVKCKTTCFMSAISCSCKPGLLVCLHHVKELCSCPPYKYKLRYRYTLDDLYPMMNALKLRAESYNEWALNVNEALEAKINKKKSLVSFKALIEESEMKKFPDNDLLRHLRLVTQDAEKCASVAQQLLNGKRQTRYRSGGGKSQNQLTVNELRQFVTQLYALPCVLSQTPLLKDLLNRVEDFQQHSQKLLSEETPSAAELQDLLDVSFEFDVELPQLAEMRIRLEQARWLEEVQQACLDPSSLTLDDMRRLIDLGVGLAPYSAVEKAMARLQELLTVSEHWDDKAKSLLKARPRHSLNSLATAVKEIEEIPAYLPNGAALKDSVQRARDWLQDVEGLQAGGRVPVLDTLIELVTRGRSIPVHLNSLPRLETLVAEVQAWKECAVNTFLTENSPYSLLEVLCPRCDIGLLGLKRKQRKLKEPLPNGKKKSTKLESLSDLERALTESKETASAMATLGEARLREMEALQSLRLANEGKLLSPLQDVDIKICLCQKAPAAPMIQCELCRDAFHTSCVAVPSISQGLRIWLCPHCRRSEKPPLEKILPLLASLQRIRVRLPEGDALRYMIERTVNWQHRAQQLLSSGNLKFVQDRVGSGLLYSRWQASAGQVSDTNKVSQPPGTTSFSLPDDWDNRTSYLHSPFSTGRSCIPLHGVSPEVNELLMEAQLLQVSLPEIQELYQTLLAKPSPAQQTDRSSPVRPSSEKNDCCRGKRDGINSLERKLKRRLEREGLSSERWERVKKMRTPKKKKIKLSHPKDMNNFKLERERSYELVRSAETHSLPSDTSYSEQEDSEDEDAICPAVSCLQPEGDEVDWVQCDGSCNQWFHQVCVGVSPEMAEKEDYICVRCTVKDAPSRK
Assay: Primary screen for KDM5B Histone Demethylases FDH-coupled qHTS; also: nearly all actives have a fitted effect of over 70% in size
Settings: FDH-coupled NADH fluorescence (FDH is formaldehyde dehydrogenase); series mostly up to 57.7 µM
In short: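 Coupled FDH/NAD⁺ fluorescence readout. KDM5BΔAP 200 nM final; compound titration, 10 min RT preincubation; substrate mix 12.5 µM H3K4me3, 25 µM 2-OG, 50 µM Fe(II), 100 µM ascorbate, 0.25 mM NAD⁺, 0.25 U/mL FDH; ΔRFU over 30 min.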
Potency is read from the fitted curve at half-maximal effect; tags tell the direction and shape of the fitted curve.

SMILES | Potency
COc1ccc2c(c1)CCc1c-2n[nH]c1C(=O)N1CCC(c2noc(COc3ccc(C)cc3)n2)CC1 | inconclusive: 20 µM [inhibitor, partial curve, poor fit]
CN(C)C[C@@H]1CN(Cc2ccncc2)C[C@H]1NC(=O)C1CCOCC1 | inconclusive: 14.1 µM [inhibitor, single point]
CCc1nc2ccc(C(=O)N3CCN(c4ccccc4)CC3)cc2nc1CC | inconclusive: 35.5 µM [inhibitor, partial curve, poor fit]
COc1cccc(Nc2ncc3c(n2)C(C)(C(=O)NC2CCN(C)CC2)CC3)c1 (centres undefined) | inactive
CC(Oc1ccc(Br)cc1)C(=O)N1CCN(c2nccs2)CC1 (centres undefined) | inactive
CCCC[N+](C)(CC#Cc1ccc(C#CC[N+](C)(CCCC)CCCC)cc1)CCCC | inactive
CCCNC(=O)c1cn(-c2cccc(Cl)c2)nn1 | inactive
O=C(CSc1nnc(-c2ccccc2)c(-c2ccccc2)n1)NC1CCCCC1 | inactive
NC(=O)c1nsc(C(=O)N(CC(=O)NC2CCCCC2)c2cccc(F)c2)c1N | inconclusive: 31.6 µM [inhibitor, single point]
CCOc1ccc(NC(=O)Cc2cc(Cl)c3c(c2)OCCCO3)cc1S(=O)(=O)N1CCCC1 | inactive
Cc1cc2cc(NS(=O)(=O)c3cccs3)ccc2[nH]1 | inactive
CCOC(=O)N1CCc2c(sc(NCc3cccc(F)c3)c2C(=O)Nc2ccccc2OCC)C1 | inconclusive: 10 µM [inhibitor, partial curve, poor fit]
CSc1ccccc1NC(=O)c1ccccc1SC | inactive
CC(=O)Nc1ccc(NC(=O)NC(C)C(C)C)cc1 (centres undefined) | inactive
CCOC(=O)N(C)[C@H]1C[C@H]2c3[nH]c4c(-c5cccc(C)c5)cccc4c3CCN2C[C@H]1[C@H](C)O | inconclusive: 14.1 µM [inhibitor, partial curve, poor fit]
CCOc1ccc(/C=C(\C#N)c2nc3ccccc3c(=O)[nH]2)cc1OC | inconclusive: 14.1 µM [inhibitor, partial curve, poor fit]
COc1ccccc1-c1cc2nc(C)c(CCC(=O)Nc3ccc(Br)c(C)c3)c(C)n2n1 | inconclusive: 39.8 µM [inhibitor, single point]
Cc1nn2c(c1-c1ccccc1OCc1ccccc1)N(Cc1cccc(O)c1)CCC2 | inconclusive: 31.6 µM [inhibitor, partial curve, poor fit]
CCOC(=O)N1CCN(c2nccc(-c3ccccn3)n2)CC1 | inactive
Cc1ccc2nc(CO[C@H]3CN(C(=O)c4ccccc4)C[C@H]3F)[nH]c2c1 | inactive
CCc1ccc(OC(C)C(=O)N2CCC(c3nc4ccccc4s3)CC2)cc1 (centres undefined) | inconclusive: 2.24 µM [inhibitor, partial curve, poor fit]
COc1ccc(-c2cc(NC(=O)c3cccs3)n(C3CCS(=O)(=O)C3)n2)cc1 (centres undefined) | inactive

SMILES | Potency
CCONC(=O)CSCc1ccc(C)cc1 | inactive
CC(C)(C)C1=C(C#N)C(c2ccc3c(c2)OCO3)C(C#N)=C(N)O1 (centres undefined) | inconclusive: 28.2 µM [inhibitor, single point]
Cc1noc(C)c1-c1cc2cc(CO)oc2c(NCc2cccc(F)c2)n1 | inconclusive: 35.5 µM [inhibitor, single point]
CCN(Cc1ccc(OC)cc1)Cc1cc(=O)oc2c(C)cc(C)cc12 | inconclusive: 39.8 µM [inhibitor, single point]
CCOC(=O)c1ccc(NC(=O)Nc2c[nH]c(=O)[nH]c2=O)cc1 | inconclusive: 7.08 µM [inhibitor, partial curve, poor fit]
COc1ccc(Cl)cc1NC(=O)CCS(=O)(=O)c1nc(-c2cccs2)cc(C(F)(F)F)n1 | inconclusive: 31.6 µM [inhibitor, partial curve, poor fit]
CCCCCOc1ccc(NC2=CC(=O)CCC2)cc1 | inconclusive: 39.8 µM [inhibitor, single point]
O=C(CN1c2ccccc2Sc2ccccc21)NNC(=O)Nc1ccc(Cl)cc1 | inconclusive: 39.8 µM [inhibitor, single point]
CC(C)CN(CCCNC(=O)Cn1ncc2c3ccccc3n(C)c2c1=O)CC(C)C | inconclusive: 2.24 µM [inhibitor, partial curve, poor fit]
COc1ccccc1CC(=O)NC1CCCC1 | inactive
COC(=O)c1ccc2c(c1)nc1n2[C@@H](CNC(=O)NC2CCCCC2)COC1 | inactive
COCc1cc(C)n(CC(=O)Nc2cc(C(F)(F)F)ccc2Cl)c(=O)c1C#N | inconclusive: 39.8 µM [inhibitor, single point]
CCOc1ccc2ncc(S(=O)(=O)c3ccccc3)c(N3CCCCCC3)c2c1 | inconclusive: 31.6 µM [inhibitor, partial curve, poor fit]
CC(=O)c1ccc(NC(=O)CSC2=C(C#N)C(c3ccccc3C)C3=C(CCCC3=O)N2)cc1 (centres undefined) | inconclusive: 39.8 µM [inhibitor, single point]
Cc1cc(-c2nn3c(-c4cccs4)nnc3s2)n(C)n1 | inactive
Cc1ccc(-n2nc(CO)c(C(=O)NCc3ccccn3)n2)cc1C | inconclusive: 25.1 µM [inhibitor, partial curve, poor fit]
CC(C)n1nc(OC(C)(C)C(=O)Nc2ccccn2)c2cc(CN3CCOCC3)ccc21 | inconclusive: 31.6 µM [inhibitor, partial curve]
CN(c1ncnc2onc(-c3cccc(Cl)c3)c12)C1CCCCC1 | inconclusive: 44.7 µM [inhibitor, single point]
Cc1ccccc1C(=O)n1nc(NCc2cccs2)nc1NCc1cccs1 | inconclusive: 39.8 µM [inhibitor, single point]
CCCOCCCNC(=O)c1c(C)noc1-c1cc(OC)c(OC)c(OC)c1 | active: 28.2 µM
CCOC(=O)c1cnc2ccc(OC)cc2c1NCCc1ccccc1 | inconclusive: 28.2 µM [inhibitor, partial curve, poor fit]
C[C@H]1[C@@H]2[C@@H](O)C([C@H](C)C(=O)NCc3cccnc3)CC[C@@]2(C)CC[C@@H]1NC(=O)c1ccccc1 (some centres undefined) | inactive
